# Reference: PubChem BioAssay AID504832 (National Center for Advancing Translational Sciences (NCATS), 2011)
# Out of some 310,000 compounds screened, about 18,000 (5.8%) were called active. The shares of active, inactive and inconclusive entries below differ from those in the screen. Calls follow the shape of the dose curve; as a rule, active = well fitted inhibition curve with a large enough effect; inconclusive = small, poorly fitted or top-dose-only effect, or another doubt; inactive = no such curve, though single readings can be large or run the other way. Potencies of inconclusive entries are left out as doubtful fits.
# Assay: Primary qHTS for delayed death inhibitors of the malarial parasite plastid, 48 hour incubation
# Settings: P. falciparum luciferase growth in erythrocytes; series mostly up to 28.7 µM
# Method in brief: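 Growth was read as firefly luciferase luminescence after a 48 h, 37 C, 5% CO2 exposure of compounds to reporter-bearing P. falciparum cultures (0.1% parasitemia, 2% hematocrit final) in Albumax-supplemented RPMI 1640.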
# % is scaled to controls: 0 for no effect and ±100 for the full control effect; potency is read from the fitted curve at half-maximal effect; tags tell the direction and shape of the fitted curve.
SMILES,Potency,"activity change, negative = inhibition"
CCOC(=O)C1=C(C)NC(SCC(=O)O)=NC1c1ccccc1 (stereo unspecified),"inconclusive [inhibitor, single point]",
COC(=O)C1=C(c2ccc(-c3ccccc3)c(F)c2)C[C@@H]2CC[C@H]1N2C(=O)NCc1cccc2ccccc12,active: 1.17 µM,
Brc1ccc2c(c1)C(c1ccc(N3CCOCC3)cc1)=NNC(c1cccs1)=N2,"inconclusive [inhibitor, single point]",
Cc1cc(C)c(S(=O)(=O)N2CC=C(c3ccccc3)CC2)c(C)c1,"inconclusive [inhibitor, single point]",
COc1ccc(N=C2SC(CC(=O)Nc3ccccc3)C(=O)N2CCc2ccccn2)cc1 (stereo unspecified),"inconclusive [inhibitor, single point]",
COc1ccc(S(=O)(=O)N2CCCC(C(=O)NC3CC3)C2)cc1OC (stereo unspecified),"inconclusive [inhibitor, partial curve, poor fit]",
Cc1cc(NS(=O)(=O)c2ccc(NC(=O)Cc3ccc(Cl)c(Cl)c3)cc2)no1,"inconclusive [inhibitor, single point]",
CC1CCC(NC(=O)CSc2ccc(S(=O)(=O)N(C)C)cn2)CC1 (stereo unspecified),"inconclusive [inhibitor, single point]",
N#CCC(=O)N/N=C/c1cn(Cc2ccc(Cl)c(Cl)c2)c2ccccc12,"inconclusive [inhibitor, full curve, poor fit]",
CN(C)c1ccc(/C=C(/NC(=O)c2ccccc2)C(=O)NCCCn2ccnc2)cc1,inactive,
O=S(=O)(c1cc(Br)ccc1Br)N1CCCCCC1,"inconclusive [inhibitor, single point]",
CC(C)(C)c1ccc(C(=O)NNc2ncccc2-n2cccc2)cc1,"inconclusive [inhibitor, single point]",
CC1(C)CCCC(C)(C)N1CC(O)COCCOc1ccc(Br)cc1 (stereo unspecified),active: 5.86 µM,
CCC(CC)C(=O)NCCCCc1ccccc1,inactive,
CCCOc1ccc(C2C(C(=O)OC)=C(C)N=C3SCCC(=O)N32)cc1OCC (stereo unspecified),"inconclusive [inhibitor, partial curve, poor fit]",
O=C(Cn1c(=O)oc2ccccc21)Nc1ccccc1C(F)(F)F,,inactive: 8.02% [at 0.00184 µM]
CCOC(=O)c1c(NC(=O)c2ccc(S(=O)(=O)N(C)CC3CCCO3)cc2)sc2c1CCN(C)C2 (stereo unspecified),"inconclusive [inhibitor, single point]",
COCCCNC(=O)/C(C#N)=C/c1c(N2CCCCCC2)nc2ccccn2c1=O,"inconclusive [inhibitor, partial curve, poor fit]",
O=C1CCCc2nc(N3CCN(c4ccccc4)CC3)ncc21,inactive,
O=C(Cn1c[n+](CC(=O)c2ccc([N+](=O)[O-])cc2)cn1)c1ccc([N+](=O)[O-])cc1,"inconclusive [inhibitor, single point]",
COc1ccc(N2CC(C(=O)N3CCC4(CC3)CC(=O)c3ccccc3O4)CC2=O)cc1 (stereo unspecified),"inconclusive [inhibitor, partial curve, poor fit]",
O=C(CC(=O)c1ccccc1)Nc1cccnc1Cl,inactive,

SMILES,Potency,"activity change, negative = inhibition"
Cc1ccc2sc(C)[n+](CCC(C)S(=O)(=O)[O-])c2c1 (stereo unspecified),inactive,
O=C(Nc1ccc(Cc2ccc(NC(=O)N3CCOCC3)cc2)cc1)N1CCOCC1,"inconclusive [inhibitor, partial curve]",
Cc1cccc(NC(=O)CSC2=NN3CCCC(=O)N=C3S2)c1C,inactive,
COC(=O)Cn1cccc1C(=O)c1ccccc1,"inconclusive [inhibitor, full curve, poor fit]",
O=C(NCC1CCCN1S(=O)(=O)c1cccs1)C(=O)Nc1ccccc1Cl (stereo unspecified),"inconclusive [inhibitor, single point]",
CCc1ccc(NC(=O)CCN2C(=O)c3cccnc3C2=O)cc1,"inconclusive [inhibitor, partial curve, poor fit]",
CCN1C[C@]2(COC(=O)c3ccccc3N)CC[C@H](OC)C34[C@@H]5C[C@H]6[C@H](OC)[C@@H]5[C@](O)(C[C@@H]6OC)[C@@](O)([C@H]13)[C@@H](OC)[C@@H]42,"inconclusive [inhibitor, partial curve, poor fit]",
O=C(NCC1CCCCC1)c1cccnc1,inactive,
COc1cccc(-c2csc(N3CCN(C(=S)Nc4ccccc4)CC3)n2)c1,"inconclusive [inhibitor, single point]",
COc1cccc(-c2cc(C(F)(F)F)n3ncc(C(=O)N4CCc5ccccc5C4)c3n2)c1,"inconclusive [inhibitor, partial curve, poor fit]",
CCSc1nnc(NC(=O)[C@@H](NC(=O)c2ccc(C(C)(C)C)cc2)C(C)C)s1,"inconclusive [inhibitor, partial curve]",
Cc1c(C(C)(C)O)[nH]c2ccc(C(F)(F)F)cc12,inactive,
COc1ccc(CN(C(=O)CSc2nnc(-c3ccccc3F)o2)c2ccc(F)cc2)cc1,"inconclusive [inhibitor, single point]",
CCOC(=O)N1CCN(Cc2nc(CC3CC3)no2)CC1,inactive,
COc1ccccc1/C=C1\SC(=S)N(NS(=O)(=O)c2ccccc2)C1=O,inactive,
CC(=O)N1CCN(Cc2nc(C(c3ccccc3)c3ccccc3)no2)CC1,"inconclusive [inhibitor, partial curve, poor fit]",
CCn1c(-c2cccnc2)n[nH]c1=S,"inconclusive [inhibitor, full curve, poor fit]",
Cc1cccc(C2(c3cccc(C)c3)OC(=O)c3ccccc32)c1,"inconclusive [inhibitor, partial curve, poor fit]",
COc1ccc(Cl)cc1N(C)C(=O)CCc1nc(-c2ccc(C)cc2)no1,"inconclusive [inhibitor, single point]",
CCN(CC)S(=O)(=O)c1ccc(CNC(=O)CN2C(=O)NC3(CCc4ccccc43)C2=O)cc1 (stereo unspecified),"inconclusive [inhibitor, single point]",
CC(=O)NCCc1c[nH]c2ccc(OCC(O)CNC(C)(C)C)cc12 (stereo unspecified),inactive,
CC(C)(O)C#Cc1ccc(CN2CCN(Cc3ccccc3)C(CCO)C2)cc1 (stereo unspecified),"inconclusive [inhibitor, partial curve, poor fit]",

SMILES,Potency,"activity change, negative = inhibition"
COc1ccc(Cl)cc1C(=O)Nc1ccc(S(=O)(=O)N2CCCC2)cc1,inactive,
Cc1cc(O)c(C(C)C)cc1NC(=O)Nc1cccc2ccccc12,active: 10.4 µM,
Cn1c(=O)c2c(nc(NCCc3ccccc3)n2Cc2ccc(F)cc2)n(C)c1=O,active: 11.7 µM,
COCCOC(=O)c1c(C)oc2ccc(NS(=O)(=O)c3ccc(F)cc3)cc12,"inconclusive [inhibitor, single point]",
Cc1ccc(S(=O)(=O)NNC(=O)c2csnn2)cc1,inactive,
CCN1CCN(c2oc(COc3ccc(-c4ccccc4)cc3)nc2C#N)CC1,"inconclusive [inhibitor, single point]",
CCC(c1nnnn1Cc1ccco1)N(CCN1CCOCC1)Cc1cc2cc(C)ccc2[nH]c1=O (stereo unspecified),"inconclusive [inhibitor, single point]",
CN(c1cccc(NC(=O)Nc2cccc(Cl)c2)c1)S(C)(=O)=O,inactive,
O=C(COc1ccc2ccc(=O)oc2c1)Nc1c(Cl)cccc1C(F)(F)F,inactive,
CN(Cc1nc(-c2ccccn2)no1)S(=O)(=O)c1ccccc1,inactive,
Cc1ccc(C(C)C)cc1OCC(=O)N1CCN(C(=O)c2ccco2)CC1,"inconclusive [inhibitor, single point]",
COc1cccc(C2c3[nH]c4ccccc4c3CCN2Cc2cccn2-c2ncccn2)c1 (stereo unspecified),"inconclusive [inhibitor, single point]",
O=C1CCN(CCc2ccccc2)CCN1[C@H](COc1ccccc1)Cc1ccccc1,"inconclusive [inhibitor, partial curve, poor fit]",
CCN1C(=O)[C@@H]2[C@@H](c3ccc(-c4ccc(OC)cc4)c(OC)c3)N3CCCC[C@@]3(C(=O)OC)[C@@H]2C1=O,active: 2.94 µM,
Cc1ccc(CNc2ccc3nnc(-c4ccccc4)n3n2)cc1,"inconclusive [inhibitor, partial curve, poor fit]",
C=CC(n1cncn1)C(O)(c1ccccc1)c1ccccc1 (stereo unspecified),"inconclusive [inhibitor, partial curve, poor fit]",
Cc1cc(C)c(NC(=O)CN(C)C(=O)C2CC(=O)N(c3cccc4ccccc34)C2)c(C)c1 (stereo unspecified),"inconclusive [inhibitor, partial curve, poor fit]",
CCOC(=O)c1cnc(SC)nc1Nc1cccc2ccccc12,"inconclusive [inhibitor, single point]",
CNc1nnc(Sc2ncccc2[N+](=O)[O-])s1,active: 9.28 µM,
COc1ccc(C)cc1NC(=O)CCCN1C(=S)NC(C)(C)CC1C (stereo unspecified),"inconclusive [inhibitor, partial curve]",
Cc1cc(Oc2ccc(Cl)cc2)nc(-c2ccccn2)n1,"inconclusive [inhibitor, partial curve]",
CCOC(=O)Cn1cc(/C=C/[N+](=O)[O-])c2ccccc21,"inconclusive [inhibitor, single point]",
